Data taken from PubChem BioAssay AID463254 (National Center for Advancing Translational Sciences (NCATS), 2010).
Screen size: about 330,000 compounds; about 40 (0.01%) were called active. Inconclusive means that the source gave no clear call. Such entries were picked first, then a sample of the others. The call rests on the fitted dose curve; in most records, active means well fitted inhibition curve with a large enough effect; inconclusive means small, poorly fitted or top-dose-only effect, or effect the other way; inactive means flat fitted curve, though single readings scatter. Potencies of inconclusive entries are doubtful fits and often do not repeat.

biological target: Ubiquitin carboxyl-terminal hydrolase 2 (Homo sapiens) (UniProt O75604); test: qHTS Assay for Inhibitors of Ubiquitin-specific Protease USP2a Using CHOP2 as the Reporter; conditions: USP2 core, Ub-CHOP2 coupled fluorogenic reporter, 485/531; series mostly up to 38.3 µM
UniProt O75604, sequence (O75604 whole entry, looked up): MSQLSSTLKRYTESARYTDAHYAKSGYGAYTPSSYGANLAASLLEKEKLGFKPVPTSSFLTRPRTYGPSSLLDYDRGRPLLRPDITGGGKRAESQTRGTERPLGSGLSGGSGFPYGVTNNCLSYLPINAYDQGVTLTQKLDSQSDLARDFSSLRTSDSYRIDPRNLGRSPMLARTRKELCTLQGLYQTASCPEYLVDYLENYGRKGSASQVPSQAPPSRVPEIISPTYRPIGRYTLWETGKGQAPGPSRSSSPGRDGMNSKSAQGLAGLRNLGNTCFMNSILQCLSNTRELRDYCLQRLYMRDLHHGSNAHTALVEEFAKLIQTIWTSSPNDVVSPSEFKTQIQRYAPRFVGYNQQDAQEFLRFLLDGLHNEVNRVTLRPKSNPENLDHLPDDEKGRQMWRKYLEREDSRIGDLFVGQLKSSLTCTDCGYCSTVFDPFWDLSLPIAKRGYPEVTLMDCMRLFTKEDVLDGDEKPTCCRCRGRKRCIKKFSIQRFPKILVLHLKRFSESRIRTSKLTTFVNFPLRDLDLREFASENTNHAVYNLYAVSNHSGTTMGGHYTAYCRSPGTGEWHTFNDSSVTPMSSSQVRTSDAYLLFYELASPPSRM
Outline: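 Cell-free coupled assay: 10nM USP2 core preincubated 30min RT with compound in Tris-HCl pH 8.0/CaCl2/CHAPS buffer, then 25nM Ub-CHOP2 and 25nM reporter substrate; fluorescence (Ex 485/Em 531) read after 60min RT, normalized to NEM inhibition, concentration-response curves fitted.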
Potency means the concentration at half of the fitted maximal effect; tags describe the fitted curve by direction and shape or compound fluorescence and quenching.

Potency, active:
C#CCOCCOCCOCCNc1nc(N2CCN(C(=O)CCCCCCCCCCNC(=O)[C@H]([C@@H](C)CC)n3cc(CCCCCN)nn3)CC2)nc(N2CCN(C(=O)CCCCCCCCCCNC(=O)[C@H](CCCCN)n3cc(CCCC(=O)O)nn3)CC2)n1 10 µM

Potency, inconclusive:
O=C1c2ccccc2-c2onc3ccc(NCc4ccco4)c1c23 11.2 µM [fluorescent, partial curve], O=C(N/N=C1\CC(c2ccccc2)Oc2ccccc21)c1ccc(O)cc1 (centres undefined) 11.2 µM [falling, single point], Cc1ccccc1[C@@H]1C(C#N)=C(N)S[C@H]1C(=O)c1ccccc1 5.01 µM [falling, single point], O=C(C1=C(O)C(=O)N(c2ncccn2)C1c1cccs1)c1ccco1 (centres undefined) 17.8 µM [fluorescent, single point], Cc1ccc(NC(=O)CCC(=O)OC(C)C(=O)c2ccccc2)cc1 (centres undefined) 5.01 µM [falling, single point], O=C1Nc2ccc(S(=O)(=O)N3CCCCCC3)c3cccc1c23 28.2 µM [falling, single point], Oc1sc(C=Nc2ccccc2)c2ccccc12 12.6 µM [fluorescent, partial curve], CCCOc1ccc(/C=C2\SC(=S)N(CC3CCCO3)C2=O)cc1 (centres undefined) 14.1 µM [falling, single point], CCCC(c1nnnn1Cc1ccc(OC)cc1)N1CCC(C(N)=O)CC1 (centres undefined) 3.98 µM [falling, single point], CC(=O)Nc1ccc(S(=O)(=O)Nc2nc3ccccc3nc2Sc2nncn2C)cc1 12.6 µM [fluorescent, single point], O=C(NCCC1=CCCCC1)C1CCCN(S(=O)(=O)c2cnc[nH]2)C1 (centres undefined) 3.16 µM [falling, single point], CN(C)c1ccc2nc3c(=O)[nH]c(=O)nc-3n(CC(O)C(O)C(O)CO)c2c1 (centres undefined) 11.2 µM [fluorescent, partial curve], CCCCC1CCC(C(=O)Nc2ccc(S(=O)(=O)Nc3nccs3)cc2)CC1 (centres undefined) 12.6 µM [falling, single point], Cc1ccc(NC(=O)CN2C(=O)N/C(=C/c3ccco3)C2=O)cc1 22.4 µM [falling, single point], O=C(Nc1ccc2c(c1)OCO2)NC1(C(F)(F)F)Oc2ccccc2O1 22.4 µM [falling, single point], O=C(CSc1nc(N2CCCCC2)nc(N2CCCCC2)n1)N1CCN(c2ccccc2)CC1 3.16 µM [falling, single point], Nc1c(S(=O)(=O)c2cccc(Cl)c2)c2nc3ccccc3nc2n1/N=C/c1ccc(O)c(O)c1 28.2 µM [falling, single point], O=C(N=c1ccn(-c2nc3ccccc3nc2NS(=O)(=O)c2ccccc2)cc1)c1cccs1 28.2 µM [fluorescent, single point], CN1CCN(CCC(=O)N/N=C/c2cc([N+](=O)[O-])ccc2O)CC1 28.2 µM [falling, single point], CN(C)c1ccc(-c2ccccc2)nn1 3.16 µM [falling, single point], COCCNCC(=O)N1CCCCCC1 28.2 µM [falling, single point], O=C(Nc1nnc(SCCC2OCCO2)s1)C1CC(=O)N(c2ccc(F)cc2)C1 (centres undefined) 22.4 µM [falling, single point], O=C(Oc1ccc2c(c1)O/C(=C\c1ccncc1)C2=O)c1ccccc1 10 µM [fluorescent, partial curve], O=C(N/N=C/c1cc(Cl)c(O)c(Cl)c1)c1cc2c(ccc3ccccc32)o1 28.2 µM [falling, single point], CCOC(=O)c1cc(-c2ccc(OC)cc2OC)nn1-c1ccc(C(=O)O)cc1 12.6 µM [fluorescent, single point], CN1CCN(C2=CC3=CC(=C(C#N)C#N)CCC3CC2)CC1 (centres undefined) 2.51 µM [fluorescent, full curve], CCN1/C(=C/C=C/c2oc3ccc(-c4ccccc4)cc3[n+]2CC)Oc2ccc(-c3ccccc3)cc21 20 µM [fluorescent, partial curve], CNS(=O)(=O)c1cccc(C(=O)OCC(=O)c2cc(C)n(-c3ccc4c(c3)OCO4)c2C)c1 5.01 µM [falling, single point], O=C(O)CCn1c(C2CCCCC2)nc2ccccc21 28.2 µM [falling, single point], COC(=O)CSc1nc2c(c(-c3ccco3)c1C#N)CCCC2 12.6 µM [falling, single point], O=C(Cn1nc(-c2cccs2)ccc1=O)Nc1ccc(Br)cc1 14.1 µM [falling, single point], CCN(CC)S(=O)(=O)c1cccc(C(=O)N/N=C2\CCCC(=O)C2)c1 14.1 µM [fluorescent, single point], Cc1ccc(Cn2nnc3c(=O)[nH]c(C4CCN(S(=O)(=O)Cc5ccccc5)CC4)nc32)cc1 12.6 µM [falling, single point], Cc1cc(OCC(=O)Nc2ccc(N3CCCC3)cc2)cc(C)c1Cl 14.1 µM [falling, single point], O=C1c2ccccc2CCC12N=NCC2c1ccc(Br)cc1 (centres undefined) 5.01 µM [falling, single point], Cc1noc(NS(=O)(=O)c2ccc(N/C=C\C(=O)c3cccc4ccccc34)cc2)c1C 20 µM [falling, single point], CCNC(=S)N/N=C/c1cn(Cc2ccc(F)cc2)c2ccccc12 22.4 µM [falling, single point], O=C(Nc1ccccc1)c1ccc2nc(-c3ccco3)c(-c3ccco3)nc2c1 28.2 µM [falling, single point], COc1ccccc1C(=O)N1CCN=C1SC 20 µM [falling, single point], CC(=O)Nc1sc2c(c1-c1nc3ccccc3s1)CN(C(C)C)CC2 10 µM [fluorescent, partial curve], O=C(CSCc1cnn(-c2ccccc2)c1-n1cccc1)NCC1CCCO1 (centres undefined) 11.2 µM [falling, single point], Cc1ccc2[nH]c(=O)c(COC(=O)c3ccccn3)cc2c1 28.2 µM [falling, single point], CCOC(=O)c1sc(NC(=O)Nc2ccccc2)cc1C 28.2 µM [falling, single point], COc1ccc(S(=O)(=O)N(C)CC(=O)Nc2cccc(C(C)=O)c2)cc1Cl 3.55 µM [falling, single point], CCN(CC)c1ccc(/C=C/C(=O)c2ccc(Br)cc2)cc1 14.1 µM [fluorescent, partial curve], O=C(C1=C(O)C(=O)N(c2nccs2)C1c1ccccc1)c1cc2ccccc2o1 (centres undefined) 2 µM [fluorescent, full curve]

Potency, inactive:
N#Cc1nccnc1S(=O)(=O)c1cccs1, COc1ccc(-c2nn(-c3ccccc3)cc2/C=C/C(=O)OCC(=O)Nc2ccc(C#N)cc2)cc1, O=C(O)CSc1ncnc2c1sc1nc(-c3ccccc3)c3c(c12)CCC3, Cc1ccc(S(=O)(=O)Nc2ccc(Nc3ccccc3)cc2)cc1, COc1ccccc1C1(CCNC(C)c2cccs2)CCOC(C(C)C)C1 (centres undefined), Nn1c(Cc2ccc(Br)cc2)n[nH]c1=S, CCn1c(=O)c([N+](=O)[O-])c(Cl)c2ccccc21, COC(=O)c1[nH]c2cc(OC)ccc2c1NC(=O)CCN1CCCCC1, CCCCNS(=O)(=O)c1ccc2nc(SCC(=O)c3ccc(C#N)cc3)[nH]c2c1, CCOC(=O)c1ccc(NC(=O)c2c(O)c3ccccc3n(C)c2=O)cc1, COc1cc2cc(C(c3nnnn3C(C)(C)C)N3CCC(C)CC3)c(=O)[nH]c2cc1OC (centres undefined), CC(=O)Nc1cc2c(cc1C(=O)c1ccccc1)OCCO2, C=CCn1c(O)c(C2=c3ccccc3=NC2=O)sc1=Nc1ccc(O)cc1, COc1ccccc1NS(=O)(=O)c1ccc(N/N=C/c2ccccc2OCC(=O)O)c([N+](=O)[O-])c1, CC1(C)CC(NNCCC#N)=CC(=[N+]2CCCC2)C1, CCOc1cccc(C2C(C(=O)c3ccc(C)o3)=C(O)C(=O)N2c2nccs2)c1 (centres undefined), CC(C)CCC(CCN1CCCC1)c1ccc2c(c1)OCO2 (centres undefined), COc1ccc(OCC(=O)Nc2cccc(-c3nc4ccccc4[nH]3)c2)cc1, Cc1cc(C)cc(OCC(=O)N/N=C/c2ccccn2)c1, CC(=O)Oc1cccc(C(=O)Nc2ccc3c(c2)C(=O)N(CC2CCCO2)C3=O)c1 (centres undefined), O=C(N/C(=C/c1ccccc1)C(=O)N1CCCCC1)c1ccccc1, COc1ccccc1C(=O)Nc1nnc(-c2ccc3c(c2)CCCC3)o1
